The text below walks through data of PubChem BioAssay AID1745853 (National Center for Advancing Translational Sciences (NCATS), 2022).

The list shows a part of the results. These are further read-outs of the screen, such as a control signal, another cell line or another target. No call is given for them.

Test in all cases: Primary Screen for Target Class Profiling of Small Molecule Inhibitors of Methyltransferases
Experiment [1] concerns the target Glycine N-methyltransferase (Homo sapiens) (UniProt Q14749). To be noted: purified enzyme, MTase-Glo SAH luminescence; measured here: GNMT inhibition; at 40 µM; stronger effect = lower value. The method in brief: (§1)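 Each enzyme was assayed with SAM and its substrate. SAH formation detected by MTase-Glo luminescence; single-point 40 uM screen[…].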
The target in experiment [2] is Guanidinoacetate N-methyltransferase (Homo sapiens) (UniProt Q14353). To be noted: purified enzyme, MTase-Glo SAH luminescence; measured here: GAMT inhibition; at 40 µM; stronger effect = lower value. The method in brief:
as §1

The target in experiment [3] is Histamine N-methyltransferase (Homo sapiens) (UniProt P50135). The settings on record: purified enzyme, MTase-Glo SAH luminescence; measured here: HNMT inhibition; at 40 µM; stronger effect = lower value. In short, it runs like this:
as §1

For experiment [4], the target named is Nicotinamide N-methyltransferase (Homo sapiens) (UniProt P40261). To be noted: purified enzyme, MTase-Glo SAH luminescence; measured here: NNMT inhibition; at 40 µM; stronger effect = lower value. The method in brief: as §1
In experiment [5] the target is Phenylethanolamine N-methyltransferase (Homo sapiens) (UniProt P11086). To be noted: purified enzyme, MTase-Glo SAH luminescence; measured here: PNMT inhibition; at 40 µM; stronger effect = lower value. In short, it runs like this: as §1
% is scaled to controls: 0 for no effect and ±100 for the full control effect.

Consider `CCOC(=O)c1cc2n(n1)CC(C)(C(=O)NCc1ccc(C)cc1)N(Cc1ccccc1OC)C2=O` (stereo not given), for which the activity change, negative = inhibition in experiment [1] is 1.04%; in experiment [2], 0.569%; in experiment [3] it was 4.84%; in experiment [4] it was -5.01%; in experiment [5], 0.875%.
The corresponding values for `NC(=O)c1cc[n+](CC2=C(C(=O)O)N3C(=O)[C@@H](NC(=O)[C@@H](c4ccccc4)S(=O)(=O)[O-])[C@H]3SC2)cc1` are -24.7%, 16.2%, 5.7%, -0.774% and 5.82%.
The corresponding values for `C=C(CCO[C@@H]1O[C@H](CO)[C@@H](O)[C@H](O)[C@H]1O)C(=O)O` are 42.4%, 75.8%, 25.9%, 57.6% and 31.5%.
For `CC(C)c1ccc(CC(=O)N2CCC[C@@H](c3cccc(OC(C)(C)C(=O)O)c3)C2)cc1`, the activity change, negative = inhibition in experiment [1] was -4.57%; in experiment [2], -5.45%; in experiment [3], 13.1%; in experiment [4] it was -18.8%; in experiment [5] it was 0.83%.
Taken in the same sequence, the figures for `Nc1nc2c(c(=O)[nH]1)C[C@@H](CCc1ccc(C(=O)N[C@@H](CCC(=O)O)C(=O)O)cc1)CN2` were -4.26%, -0.203%, 11.9%, -7.08% and 4.18%.
The corresponding values for `COC(=O)C1=C(C)NC(=O)NC1c1ccc(Cl)cc1` (stereo not given) are -2.67%, -2.95%, -1.19%, -5.06% and -1.89%.
`CN1C[C@H](NCc2nccn2C)CCC[C@@H](C(=O)NC2CCOCC2)CC1=O`: the activity change, negative = inhibition in experiment [1] was -6.16%; in experiment [2], -4%; in experiment [3], -2.67%; in experiment [4] it was -6.93%; in experiment [5], -7.22%.
Taken in the same sequence, the figures for `Cc1ccc(-c2cc3n(n2)CCCN(C(=O)CCN2C(=O)NC(C)(C)C2=O)C3)cc1C` were -2.77%, 1.01%, -0.335%, -4.55% and 0.761%.
Taken in the same sequence, the figures for `Cc1ccc(NC(=O)Cn2nc3n(C)c(=O)c4ccc(C(=O)NC5CCCCC5)cc4n3c2=O)cc1` were 4.76%, 0%, 8.71%, 3.85% and 4.5%.
The corresponding values for `CCCn1c(=O)c2ccc(C(=O)NCC(C)C)cc2n2c(=O)n(CC(=O)c3ccc(Cl)cc3)nc12` are 2.53%, 0%, 5.41%, 0.453% and 6.73%.
On to `CC1CCC(NC(=O)C2(C)Cn3c(ccc3-c3ccccc3)C(=O)N2Cc2ccccc2Cl)CC1` (stereo not given), for which the activity change, negative = inhibition in experiment [1] is 3.35%; in experiment [2] it was 0%; in experiment [3], 2.53%; in experiment [4], -0.668%; in experiment [5] it was 0.366%.
Taken in the same sequence, the figures for `CC12CC34C=CC(=O)C(C)(CCC(=O)O)C3C(CC1C4)O2` (stereo not given) were 0%, 6.07%, 12.4%, -7.12% and 4.84%.
The corresponding values for `CNC(=O)C1(N2CCC[C@H]2C(=O)N(C)CCN(C)C)CCC1` are -0.32%, 2.11%, 0.597%, -7.51% and 13%.
In the case of `Cc1cnc(Nc2cccc(CN3CCOCC3)c2)nc1Nc1cccc(S(=O)(=O)NC(C)(C)C)c1`, the activity change, negative = inhibition was -6.43% in experiment [1]; -10.5% in experiment [2]; -13.4% in experiment [3]; -21.7% in experiment [4]; -16.6% in experiment [5].
The corresponding values for `Cc1ccc(-c2nc3cnccn3c2NCCC(=O)O)cc1` are -7.46%, -5.5%, -4.02%, -10.2% and -9.92%.
For the compound `Cc1ccc(S(=O)(=O)c2nnn3c2nc(NC2CC2)c2cc(Cl)ccc23)cc1C`, the activity change, negative = inhibition in experiment [1] is -8.95%; in experiment [2], -1.41%; in experiment [3] it was -4.29%; in experiment [4], -8.22%; in experiment [5], -11.5%.
The corresponding values for `O=C(O)c1ccc(-c2nc3ccncc3[nH]2)cc1` are -28%, -28.6%, -23.6%, -36.2% and -36.5%.
Taken in the same sequence, the figures for `CC(C)CC(=O)OC[C@H]1O[C@@](COC(=O)CC(C)C)(O[C@H]2O[C@H](CO)[C@@H](O)[C@H](O)[C@H]2O)[C@@H](OC(=O)CC(C)C)[C@@H]1OC(=O)CC(C)C` were 1.59%, 15.3%, 7.43%, -0.235% and 9.17%.
Taken in the same sequence, the figures for `COc1ccc(CNC(=O)C2(C)Cn3cnc(C(=O)Nc4cccc5c4CCCC5)c3C(=O)N2C2CC2)cc1` (stereo not given) were -0.432%, 4.62%, -1.22%, -5.74% and 0.025%.
On to `CCOC(=O)c1cc2n(n1)CC(C)(C(=O)NC1CCCCC1)N(c1ccc(F)cc1)C2=O` (stereo not given), for which the activity change, negative = inhibition is -4.51% in experiment [1]; 0.158% in experiment [2]; -10.2% in experiment [3]; -3.02% in experiment [4]; -1.18% in experiment [5].
`Cc1noc(-c2ccn3c(CNC(=O)COc4ccccc4)nnc3c2)n1`: the activity change, negative = inhibition in experiment [1] is -4.12%; in experiment [2], -1.54%; in experiment [3] it was -1.6%; in experiment [4], 0.793%; in experiment [5], -1.55%.
Taken in the same sequence, the figures for `O=C(CN1CC2CC(C1)[C@H]1CCCC(=O)N1C2)N1CCCCC1` (stereo not given in full) were -5.28%, -5.97%, -4.5%, -6.82% and -12.3%.
Taken in the same sequence, the figures for `COc1ccc(NC(=O)CN(C)S(=O)(=O)c2ccc3[nH]c4c(c3c2)CCCC4)c(OC)c1` were -1.24%, 4.25%, -5.61%, -5.2% and -4.71%.
Consider `COc1ccc(-c2nc3c(C)cccc3cc2CN2CC[C@@H](O)C2)cc1`, for which the activity change, negative = inhibition in experiment [1] is -13.9%; in experiment [2], -5.79%; in experiment [3] it was -16.5%; in experiment [4], -7.79%; in experiment [5], 4.55%.
As for `CN1C(=O)c2cc(C(=O)NCc3ccc(Cl)cc3)nn2CC1(C)C(=O)NC1CCCC1` (stereo not given), the activity change, negative = inhibition worked out at 6.22% in experiment [1]; 0.568% in experiment [2]; 2.71% in experiment [3]; 8.09% in experiment [4]; 3.47% in experiment [5].
The corresponding values for `Brc1cccc(-c2nnn3c2nc(NCc2ccc4c(c2)OCO4)c2ccccc23)c1` are 2.18%, 0%, 5.63%, -5.5% and -2.38%.
The corresponding values for `CCc1cc2c(cc3n2CC(C)(C(=O)NC2CCCCC2)N(c2cc(Cl)ccc2C)C3=O)s1` (stereo not given) are -1.62%, 1.65%, -1.7%, 1.8% and -2.73%.
Taken in the same sequence, the figures for `O=C(NCC1(COc2ccc(C(F)(F)F)cn2)C[C@@H](O)[C@@H](O)C1)c1cnccn1` (stereo not given in full) were -1.64%, -0.265%, 0.382%, -1.86% and 7.79%.
On to `CC(=O)Nc1ccc(N2C(=O)c3ccc(-c4ccco4)n3CC2(C)C(=O)NCc2ccc(Cl)cc2)cc1` (stereo not given), for which the activity change, negative = inhibition in experiment [1] was -9.71%; in experiment [2], 0%; in experiment [3], 5.71%; in experiment [4] it was 1.19%; in experiment [5], -0.309%.
